From patent publication US12043670B2, “Anti-BCMA antibody-drug conjugates and methods of use” (Eisai R&D Management Co., Ltd., priority 2020, dated 2024)

B1: AB216-ADL1-D2-02 (conjugate)
heavy: QVQLVQSGAEVKKPGSSVKVSCKASGGTFSNYWIHWVRQAPGQGLEWMGATYRIQSDTYYNQKYKSRVTITADKSTSTAYMELSSLRSEDTAVYYCARGAVYHGYDVIDNWGQGTLVTVSS[omitted - human IgG1 constant region]
light: DIQMTQSPSSLSASVGDRVTITCRASQSISSYINWYQQKPGKAPKLLIYATSNLQIGVPSRFSGSGSGTDFTLTISSLQPEDFATYYCQQYRRLPWSFGQGTKLEIKRTVAAPSVFIFPPSDEQLKSGTASVVCLLNNFYPREAKVQWKVDNALQSGNSQESVTEQDSKDSTYSLSSTLTLSKADYEKHKVYACEVTHQGLSSPVTKSFNRGEC
B2: AB213-ADL1-D2-02 (conjugate)
heavy: QVQLVQSGAEVKKPGSSVKVSCKASGGTFTNYWIHWVRQAPGQGLEWMGGTYRSHSTTYYNQKFKSRVTITADKSTSTAYMELSSLRSEDTAVYYCARGAVYHGYDVIDNWGQGTLVTVSS[omitted - human IgG1 constant region]
light: DIQMTQSPSSLSASVGDRVTITCRASQSISSYLNWYQQKPGKAPKLLIYATSNLQIGVPSRFSGSGSGTDFTLTISSLQPEDFATYYCQQFRRLPWTFGQGTKLEIKRTVAAPSVFIFPPSDEQLKSGTASVVCLLNNFYPREAKVQWKVDNALQSGNSQESVTEQDSKDSTYSLSSTLTLSKADYEKHKVYACEVTHQGLSSPVTKSFNRGEC
B3: AB212-ADL1-D2-02 (conjugate)
heavy: QVQLVQSGAEVKKPGSSVKVSCKASGGTFSNYWIHWVRQAPGQGLEWMGGTYRSHSDTNYNQKFKSRVTITADKSTSTAYMELSSLRSEDTAVYYCARGAIYHGYDVIENWGQGTLVTVSS[omitted - human IgG1 constant region]
light: DIQMTQSPSSLSASVGDRVTITCRASQSISSYLNWYQQKPGKAPKLLIYATSNLQIGVPSRFSGSGSGTDFTLTISSLQPEDFATYYCQQFRRLPWTFGQGTKLEIKRTVAAPSVFIFPPSDEQLKSGTASVVCLLNNFYPREAKVQWKVDNALQSGNSQESVTEQDSKDSTYSLSSTLTLSKADYEKHKVYACEVTHQGLSSPVTKSFNRGEC

Experiments:
[1] = test system: BCMA-negative Jurkat cells; experiment: CellTiter-Glo cell viability, BCMA-negative Jurkat; assay type: cell-based
Protocol: Briefly, all cells and ADC solutions were prepared in a laminar flow hood under sterile conditions. For each cell line to be assayed, cells were resuspended in the appropriate medium supplemented with FBS to a density of 5.56×10^4 cells/mL. 90 μL of cell suspension was added to all wells of clear-bottom, black-wall, 96-well plates. For all test articles (anti-BCMA ADCs and reference ADCs), 10× stocks of the highest concentrations to be tested were prepared in 96-well plates and serially diluted 1:3 nine times to generate a 10-point curve. 10 μL of each 10× test article solution were added to the appropriate wells of the 96-well plates containing 90 μL of cells, and plates were placed in humidified incubators at 37° C. with 5% CO2 for 6 days. Immediately after placing assay plates in the incubator, a single 96-well plate of cells was treated with CellTiter-Glo® reagent (Promega), incubated at room temperature for 10 min, and luminescence was quantified on an EnVision microplate reader. This plate served as a “time zero” reference and was used to interpret the data obtained after 6 days of incubation. Day-6 luminescence values less than those of the time zero plate were indicative of cell death, whereas signals less than the day-6 vehicle-treated cells but greater than the time zero signal were indicative of cytostatic activity. […]

[2] = SEC analysis - aggregation / percent monomer; assay type: physicochemical; settings: absorbance at 280 nm, ADC batch
Protocol: The peak area absorbance at 280 nm was determined for the high molecular weight and monomeric conjugate components by area under the curve integration.

[3] = HPLC analysis - free drug; assay type: physicochemical; settings: residual unconjugated linker-payload in ADC batch
Protocol: Conjugate was precipitated with 10 volumes of acetonitrile on ice for 2 hours and spun down. Supernatants containing residual unconjugated payload were then injected onto an Agilent Poroshell 120 SB-C18120A column (4.6×100 mm, 2.7 μm) and eluted with a gradient of 45% B to 70% B over 10 min at RT. Mobile phase A was 100% water, mobile phase B was 100% acetonitrile, and the flow rate was 0.6 mL/min with detection at 252 nm. The amount of residual free drug was quantified via UV detection with comparison to the external standard curve of unconjugated linker-payload.

[4] = Accelerated stability testing at 37° C. (aggregation, concentration, DAR); assay type: physicochemical; settings: 20 mM Histidine/HOAc pH 6.0
Protocol: (§1) Exemplary anti-BCMA ADCs (˜1 mg each in Eppendorf tubes, ˜4-5 mg/mL) were centrifuged and measured by UV absorption (NanoDrop) at 280 nm to determine protein concentrations. Samples were then incubated in a 37° C. water bath and sampled at four time points, 0 (freshly prepared), 1 day, 2 days, and 4 days. Samples taken at different time points were stored at −80° C. until the last sampling was completed. After thawing at 22° C., samples were analyzed with SEC and hydrophobic interaction chromatography (HIC) for quantification of antibody aggregation and DAR.

[5] = Freeze-thaw testing (DAR, aggregation, concentration); assay type: physicochemical; settings: histidine/pH 6.0 buffer
Protocol: Exemplary ADC samples (80 μL each, histidine/pH 6.0 buffer) were frozen at −80° C. for 2 hours. The samples were then placed at 22° C. for 30 min to remove visible ice. This completed one cycle. Sampling was performed at the starting point and after 1, 4, and 10 freeze-thaw cycles. 15 μL of each ADC was sampled each time, 7.5 μL of which was used to analyze DAR, aggregation, and concentration. Before analysis, all samples were stored at −80° C.

[6] = test system: OPM2 multiple myeloma xenograft; experiment: OPM2 xenograft model, anti-BCMA ADCs (Studies 1 and 2); assay type: in vivo, mouse; settings: single intravenous dose 20 mg/kg; for Tumor growth inhibition (% ± SEM, day 28): OPM2 xenograft Study 2, CB17-Scid mice
Protocol: (§2) Methods: Anti-tumor activity of exemplary anti-BCMA ADCs was assessed in an OPM2 multiple myeloma xenograft model. OPM2 cells were cultured and expanded for inoculation according to ATCC recommendations. Cells were pelleted and resuspended in a solution of serum-free RPMI-1640 medium (50% v/v) and Matrigel (50% v/v) at a density of 5.0×10^7 cells/mL. Female CB17-Scid mice were inoculated subcutaneously with 100 μL of cell suspension on their right flanks and monitored for tumor growth. When the mean tumor volume reached ˜150 mm^3, mice were randomized into treatment groups and given a single intravenous dose (via tail vein) of 2.0 mg/mL dosing solution at 10 mL/kg for a total dose of 20 mg/kg. Mice were weighed and their tumors were measured two to three times/week. Animals with tumors exceeding 2000 mm^3 or 20 mm in any dimension were taken off study and appropriately euthanized according to IACUC protocol. Upon euthanasia, tumor samples and serum were collected and banked for subsequent analyses.
Conjugates of AB213, AB214, and AB215 were assessed in a first experiment (FIG. 11; Table 30); conjugates of AB212, AB216, AB217, and AB218 were assessed in a second experiment (FIG. 12; Table 31).
In the second experiment, to evaluate the antibody-specific activity of ADCs incorporating exemplary anti-BCMA antibodies, a ‘non-targeting’ ADC was generated by conjugating the ADL1-D2 linker-payload to the anti-HER2 antibody trastuzumab (AB185) at an average DAR of ˜4.0.

[7] = test system: MOLP8 multiple myeloma xenograft; experiment: MOLP8 xenograft model, anti-BCMA ADCs (Study 1); assay type: in vivo, mouse; settings: MOLP8 xenograft Study 1, conditions as OPM2 model (single intravenous dose 20 mg/kg)
Protocol: as §2, with “Cells were pelleted and resuspended in a solution of serum-free RPMI-1640 medium (50% v/v) and Matrigel (50% v/v) at a density of 5.0×10^7 cells/mL.” left out
Methods: To further evaluate the anti-tumor activity of exemplary anti-BCMA ADCs in vivo, a screen of the same ADCs was performed in a second multiple myeloma xenograft model, MOLP8. […] All experimental conditions in this study were identical to those used for the OPM2 model with the exception of the model itself and the number of days from tumor inoculation to dose administration (day of dosing is indicated by an arrow in FIG. 15).

[8] = HIC analysis - DAR of the ADC batch; assay type: physicochemical; settings: for Drug-to-antibody ratio (DAR): HIC
Protocol: as §1

MM1.S cells = experiment: CellTiter-Glo cell viability, MM1.S; assay type: cell-based, human; settings: for GI50: MM1.S cells, 6 days, CellTiter-Glo, read-out: GI50 (nM) MM1S.1
OPM2 cells = experiment: CellTiter-Glo cell viability, OPM2 (normal serum); assay type: cell-based, human; settings: for GI50: OPM2 cells, 6 days, CellTiter-Glo, read-out: GI50 (nM) OPM2.1
MOLP8 cells = experiment: CellTiter-Glo cell viability, MOLP8; assay type: cell-based, human; settings: for GI50: MOLP8 cells, 6 days, CellTiter-Glo, read-out: GI50 (nM) MOLP8.1

Molecule	Percent Monomer [2] [%]	Free Drug (%) [3] [%]	Aggregation (%) ([4]; 0 d at 37° C.)	Concentration ([4]; 0 d at 37° C.) [µg/mL]	DAR (HIC) ([4]; 0 d at 37° C.)	Aggregation (%) ([4]; 1 d at 37° C.)	Concentration ([4]; 1 d at 37° C.) [µg/mL]	DAR (HIC) ([4]; 1 d at 37° C.)	Aggregation (%) ([4]; 2 d at 37° C.)	Concentration ([4]; 2 d at 37° C.) [µg/mL]	DAR (HIC) ([4]; 2 d at 37° C.)	Aggregation (%) ([4]; 4 d at 37° C.)	Concentration ([4]; 4 d at 37° C.) [µg/mL]	DAR (HIC) ([4]; 4 d at 37° C.)	Tumor growth inhibition (% ± SEM, day 28) [6] [%]	Tumor growth inhibition (% ± SEM, day 21) [7] [%]	Drug-to-antibody ratio (DAR) ([8]; batch used in MOLP8 Study 1)	Drug-to-antibody ratio (DAR) ([8]; batch used in OPM2 Study 2)	LD50 (nM) MM1S.1 (MM1.S cells) [nM]	GI50 (MM1.S cells) [nM]	other results
B1	99.11	1.63	0.65	4920	3.81	0.92	4520	3.82	1.60	5560	3.81	2.73	5310	3.84	96.99 ± 1.90	65.81 ± 11.49	3.8	3.8			GI50 [1]: ≥ 400 nM; LD50 (nM) Jurkat [1]: 400 nM; Aggregation (%) ([5]; After 6 freeze-thaw): 0.65%; Concentration ([5]; After 6 freeze-thaw): 4920 µg/mL; HIC DAR ([5]; After 6 freeze-thaw): 3.81; Aggregation (%) ([5]; Before freeze-thaw): 0.89%; Concentration ([5]; Before freeze-thaw): 4910 µg/mL; HIC DAR ([5]; Before freeze-thaw): 3.80; HIC DAR ([8]; batch used in cell viability analysis (Table 26)): 3.8
B2	99	0.0	0.72	4730	4.20	2.02	4560	4.20	1.71	4610	4.29	1.98	4810	4.40					236.418	0.43	LD50 (nM) OPM2.1 (OPM2 cells): 32.461 nM; GI50 (OPM2 cells): 1.16 nM; LD50 (nM) MOLP8.1 (MOLP8 cells): 79.032 nM; GI50 (MOLP8 cells): 6.06 nM; Tumor growth inhibition (% ± SEM, day 30) ([6]; OPM2 Study 1, ADC, day 30): 67.78 ± 5.08%
B3	100	2.1	1.10	4960	5.19	1.52	4850	5.24	1.83	4950	5.19	1.62	5010	5.21	94.53 ± 4.34	68.23 ± 12.52	5.17	5.17	136.061	3.69	LD50 (nM) OPM2.1 (OPM2 cells): 90.732 nM; GI50 (OPM2 cells): 17.7 nM; LD50 (nM) MOLP8.1 (MOLP8 cells): 73.65 nM; GI50 (MOLP8 cells): 26.2 nM
